In paper PMC2788703:
Results are given in words; binding and its absence hold for the method and conditions named. In cells and extracts the contact can be indirect. Some binding calls cover weakened binding; strength is not graded here.

By UniProt entry, the sequences of proteins in these tests, tags left out. Where a name states a change or a piece, a line headed by the entry shows the natural chain unless it says otherwise. Residues count along the entry.
UniProt Q9Y4L5: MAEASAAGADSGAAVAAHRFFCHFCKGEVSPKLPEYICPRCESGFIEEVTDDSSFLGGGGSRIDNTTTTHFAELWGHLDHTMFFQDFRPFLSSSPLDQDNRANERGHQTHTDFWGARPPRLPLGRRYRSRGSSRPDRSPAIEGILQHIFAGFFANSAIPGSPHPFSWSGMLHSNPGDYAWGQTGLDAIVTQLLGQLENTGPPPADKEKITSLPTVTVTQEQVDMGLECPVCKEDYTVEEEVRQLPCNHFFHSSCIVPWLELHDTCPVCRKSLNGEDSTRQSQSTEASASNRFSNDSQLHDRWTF
HA-BCA2ΔRING (1–227 aa), RING domain deleted mutant: residues 1-227 of Q9Y4L5
HA-BCA2ΔC (1–147 aa), C-terminal truncation mutant: residues 1-147 of Q9Y4L5
HA-BCA2ΔN (148–305 aa), N-terminal truncation mutant: residues 148-304 of Q9Y4L5
UniProt Q10589, residues 1-161: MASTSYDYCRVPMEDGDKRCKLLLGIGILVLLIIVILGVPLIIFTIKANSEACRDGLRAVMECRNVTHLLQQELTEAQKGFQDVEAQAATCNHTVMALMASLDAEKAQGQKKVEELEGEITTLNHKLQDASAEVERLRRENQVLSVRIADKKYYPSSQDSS

Legend:
[1] = target: HA-BCA2ΔN (148–305 aa), N-terminal truncation mutant (human) (UniProt Q9Y4L5); assay: co-IP; 293T cells co-expressing Myc-tetherin (FL or Δ1–20) and HA-BCA2 (FL or deletion mutants); lysates incubated with anti-HA affinity gel; immunoblot with HA or Myc antibodies
[2] = target: HA-BCA2ΔC (1–147 aa), C-terminal truncation mutant (human) (UniProt Q9Y4L5); assay: as above
[3] = target: HA-BCA2ΔRING (1–227 aa), RING domain deleted mutant (human) (UniProt Q9Y4L5); assay: as above
[4] = target: N-terminal HA-tagged BCA2 (human) (UniProt Q9Y4L5); assay: as above
[5] = target: GST-BCA2 (recombinant GST-tagged BCA2) (human) (UniProt Q9Y4L5); assay: pull-down; glutathione beads coupled with purified GST-BCA2 incubated with lysates of 293T cells expressing Myc-tetherin (FL or Δ1–20); immunoblot with Myc antibody; only the target purified
[6] = target: BCA2 (initial screening test, construct not stated) (human) (UniProt Q9Y4L5); assay: co-IP + pull-down; initial screening test of approximately 60 Rab family proteins against tetherin or HIV-1 Gag; data not shown

binding [1]	binding [2]	binding [3]	binding [4]	binding [5]	binding [6]	Substance
binds	no binding	binds	binds	binds	–	N-terminal Myc-epitope-tagged wild-type tetherin (from UniProt Q10589 1-161)
–	–	–	–	–	binds	tetherin (initial screening test, construct not stated) (from UniProt Q10589 1-161)
